# Some of the results follow.
# System: PfAP2-HC AP2 domain (GST-tagged)
# Experiment: gcPBM binding intensity (ln(normalized median fluorescence intensity)); higher = stronger DNA binding
# Outline: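 Using an Agilent 4 × 180k array, primer-extended double-stranded 36-bp intergenic genomic probes and negative controls were exposed for 1 h to GST-fused P. falciparum DNA-binding domains expressed in E. coli. Binding was carried out in 1× PBS with 1% milk, 0.2 mg/ml BSA, 0.5% salmon testes DNA and 0.03% Triton X-100, and protein was detected with Alexa488 anti-GST antibody and a 488 nm scan. Binding intensity is the highest Masliner-normalised natural-log median intensity across replicate spots of either probe orientation.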
row,Sequence,gcPBM binding intensity (ln)
1,TATAAAGATATAAATGCACACGTATTAAAAAAAAAA [CACACA_site8223],9.89
2,GCATATATGGATATATAGGTATATATAAATGCAATA [GTGCAC_negctrl_site24],9.76
3,CCTCTCATTTTATATAGTACATATTTCAAAAAAAAA [XGTACX_site488],9.27
4,AGGAGGATAGTTCACAGTACCCAGTAACTCTACGGA [XGTACX_site1997],9.48
5,ATATAAAAAAAAAATTGTACAAAAATATATACATAT [XGTACX_site469],9.71
6,GCATATTTTCCCTGTGAATAAAGTTTTTTTTTTTAT [XGTACX_negctrl_site87],9.69
7,AAGGTATAGAAACACACACACGTGAATATAGTTTAA [CACACA_site5109],10.2
8,TTCTTAAATATATTCAACATACATAATATATAATCT [CACACA_negctrl_site1806],9.51
9,TATATATGTATATATTGTACTTTAAGACAAATATAT [XGTACX_site1052],9.51
10,CGTTATATAATAAAGGTGCATAGATATATCATTATA [GTGCAC_site9774],9.56
11,TATATAACATATATATGTACACATAATATCAGATTT [XGTACX_site1041],9.71
12,TTCACTAATAAATACGCACACATATACATATATATA [CACACA_site1383],9.9
13,TTTCAAATATATATAGCACACAAGGTATAATATAAA [CACACA_site877],9.74
14,TAATTTTTTTTAAACACACACATTACATTCAAAAAT [CACACA_site127],10.1
15,CTAATATAGGTATGCACACACAATATGTACATATTT [CACACA_site7558],10.4
16,TTTTAATTAGTACAAACACACATATACACCCAAAAA [CACACA_site5422],10
17,ATATAAAAAAGGGAGGTAAATGAATGTGAAACCCAA [GTGCAC_negctrl_site359],9.7
18,TAATTGTAGACATGCACACACAAATATTATATATGT [CACACA_site845],10.2
19,TATTTTTTACATTCGTGTACGCATTTTTGTGAATTT [XGTACX_site5339],9.79

row,Sequence,gcPBM binding intensity (ln)
1,ACAAAAATATTTGTAAAAAGAAATATAAATAAATAA [TGCATGCA_negctrl_site357],9.49
2,AAAAATAGAGCAGCTCTCATATTTTTATGTGCAATA [CACACA_negctrl_site837],9.53
3,AGGATATATTATATGTACACACACATATAAGGGATT [GTGCAC_negctrl_site47],10.2
4,GCATTTATGAAAAATGTACACACATCAAATGCTTAT [CACACA_site9347],9.77
5,TATTACACACAATATTGTACACATAGGAAAAATATT [XGTACX_site1726],9.85
6,TTTTTTATTTTTTGTTATATTTATAATAATTTATGA [XGTACX_negctrl_site260],9.59
7,ATATATATATATGTAGTGCATTTTATATATAATATT,9.76
8,TACTTTACACATATTTTTAATTATTCTGAATTCAAA [GTGCAC_negctrl_site253],9.51
9,TAAAAGTTCACCTGTACACACATATATATATGTACA [CACACA_site1707],9.8
10,AAGAAATAAATACATACACACATATATATATATATA [CACACA_site3362],10.3
11,ATAAGTAATATAATATGTACATATATATATATATAT [XGTACX_site3818],9.93
12,TATATATTGTTATAATGTACATAATATTTTATCTGC [XGTACX_site4983],9.63
13,ATGCAAAATAAAGAAGCACACAAAAATGAAATATAT [CACACA_site9217],9.86
14,AGAATAATTTTATCGGTACACACTGTATGCATAATA [CACACA_site374],9.76
15,GGAAATTTCAATATTTGTACATATATATATATATAT [XGTACX_site3222],9.71
16,TACAGATATTTTATTTCACACATTTTATCATTTTCT [CACACA_site5701],9.75
17,TTCAAAAAAGGAAAGTTGCACTTGATACGCTTATTA [GTGCAC_site9411],9.39
18,TTCTATATTTCTTTTTGTACATATAAATTCAAATAA [XGTACX_site2476],9.64
19,ATATAAAATAATACATGTACATATTATATATATATA [XGTACX_site1082],9.86

row,Sequence,gcPBM binding intensity (ln)
1,TATATACGCATTTTTATACACACTTGTTTTATAAAA [CACACA_site727],9.72
2,ATTTTTTTTTCTTAATGTACATACCAAAAAGAAAGA [XGTACX_site5471],9.39
3,TATAATATATTTTAATGTACGTACATCCCGATTAAT [XGTACX_site7651],9.58
4,TTTGTCTGCATACGCACACACGTGTACCATCTTATG [CACACA_site4784],10.2
5,TATTAATATATATGTTGTACAAGTTTTTTTTTTTTT [XGTACX_site5865],9.63
6,GATAAAATATGTTGCCGTACATATTCATATACTTAA [XGTACX_site4776],9.67
7,AAATATTAAATGACAAAAAAAAAAAAAAAAGGGGTT [CACACA_negctrl_site951],9.85
8,TTCTTTATTTTTTCTACACACATTATATATTCAAAG [CACACA_site5866],9.88
9,TATTTTGAAAATAAAAGTACAAATTTTATATTTAAA [XGTACX_site3238],9.07
10,TATTTATATTCATAATGTACATTCAATTATTGTTTT [XGTACX_site4191],10.1
11,TTTCCATTTTCTCTATGTACATAAAAATGAGATAAA [XGTACX_site5689],9.31
12,CACACGCACGGACACACACACAAAAAAAAAAAGAAA [CACACA_site6378],10.3
13,AAGACCATATGAATAATGCACACGTTTTAAAATATT [CACACA_site2323],9.76
14,AAATAAATCTTATGCACACAAATAATTAATGAAACA [CACACA_site5011],9.89
15,TCTTTGTACTTTCACATGTACACCCAAATGGAAATT [CACACA_negctrl_site1442],9.68
16,ATATTTATGGAATATACACACATGTATAATTACATA [CACACA_site7045],9.72
17,AGGACTAATATTTGAACACACATATAATAAATACAT [CACACA_site6068],9.96
18,GTTTGGTGGTGTTTTGGTACGTACGGGGGTGTATGT [XGTACX_site1211],10.1

# Source: the supplement of paper PMC11417369
